Experimental findings from the RNAGym collection of RNA variant scans (doi:10.1101/gad.245936.114) are described below.

B1: tRNA (parent)
chain: CUCUCGGUAGCCAAGUUGGUUUAAGGCGCAAGACUUUAAUUUAUCACUACGAAAUCUUGAGAUCGGGCGUUCGACUCGCCCCCGGGAGAUUUUUUCCUCGAGCAA

This sample is rich in variants without activity. Bounds are passed on as bounds.

Variants of B1 are the subject of this data set. In words: nonsense suppression (GFP-seq) (ratio to wild type); higher = more function; SUP4oc tRNA, yeast GFP reporter sort-seq. The essentials: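 Nonsense suppression (GFPSEQ) is the median GFP/RFP ratio of each sorting bin, weighted by the variant's estimated share of cells in that bin and expressed relative to the unmutated parent tRNA. Yeast strains carried genome-integrated variants of an ochre-suppressor tRNA from a library with ~3% random mutations, plus a galactose-driven GFP ochre reporter and RFP, and were grown in raffinose/galactose medium containing 80 mg/L adenine. Cells were sorted into GFP/RFP bins, each bin was Illumina-sequenced (phred ≥30), and variants were kept only with ≥100 reads and ≥30 cells.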
Take CUCUCGGUAGCCAAGUUGGUUUUAGGCGCAAGACUUUAAUUUAUCACUACGAAAUCUUGAGAUCGGGCGUUCGACUCGCCCCCUGGAGAUUUUUUCCUCGAGCAA [A23U G84U]: the nonsense suppression is at most 0.026. In the case of CUCUCGGUAGCCCAGUUGGUUUAAGGCGCAAGACUUUAAUUUAUCACUACGAAAUCUUGAGAUCGGGCGUGCGACUCGCCCCCGGGAGAUUUUUUCCUCGAGCAA [A13C U71G] it was at most 0.026; in that of CUCUCGGUAGCCAAGUUGUUUUAAGGCGCAGGUCUUUAAUUUAUCACUACGAAAUCUUGAGAUCGGGCCUUCGACUCGCCCCCGGGAGAUUUUUUCCUCGAGCAA [G19U A31G A33U G69C], at most 0.026; in that of CUCUCGGUAGCCAAGUUGGUUUAAGGCGCAAGACAUUAAUUUAUCACUACGAAAUCUUGAGAUCGGGCGUUCGCCUCGCCCCCGGGAGAUUUUUUCCUCGAGCAA [U35A A74C], at most 0.026. In the case of CUCUCGGUAGCCAAGUUGGUUUAAGGCGCAAGACUUUAAUUUAUCACUACGAAUUAUUGAGAUCGGGCGUUUGACUCGCCCCCGGGAGAUUUUUUCCUCGAGCAA [A54U C56A C72U] it was at most 0.026; in that of UUCUCGUUACCCUAUUUGGUUUAAGGCGCAAGACUUUAAUUUAUCACUACGAAAUCUUGAGAUCGGGCGUUCGACUCGCCCCCGGGAGAUUUUUUCCUCGAGCAA [C1U G7U G10C A13U G15U], at most 0.026. On to CUCUCGGAAGCCAAGUUGGUUUUAGGCGCAAGGCUUUAAUUUAUCACUACGAAAUCUUGAGAUCGGGCGUUCGACUCGCCCCCGGGAGAUUUUUUCCUCGAGCAA [U8A A23U A33G], for which the nonsense suppression is at most 0.026. In the case of AUCUCGGUAGCCAAGUUGGUUUAAGGCGCAAGACUUUAAUUUAUCACUACGAAAUCUUGAGAUCGGUCGUUCGACUCGCCCCCGCGAGAUUUUUUCCUCGAGCAA [C1A G67U G85C] it was at most 0.026; in that of CUCUCAGUAGCCGAGUUGGUUUAAGGCGCAAGACUUUAAUUUAUCACUACGAAAUAUUGAGAUCGGGCGUUCGACUCGCCCCCGGGAGAUUUUUUCCUCGAGCAA [G6A A13G C56A], at most 0.026.

As to CACUAGGUAGCCAAGUUGGUUUAAGGCGCAAGACUUUAAUUUAUCACUACGAAAACUUGAGAUCGGGCGUUCGACUCGCCCCCGGGAGAUUUUUUCCUCGAGCAA [U2A C5A U55A], the nonsense suppression was at most 0.026.

With CUCUCGGUCGCCACGUUGGUUUAAGGCGCAAGACUUUAAUUUAUCACUACGAAAUCUUGAGGUCGGGCAUUCGACUCGCCCCCGGGAGAUUUUUUCCUCGAGCAA [A9C A14C A62G G69A], the nonsense suppression was at most 0.026. Then CUCUCGGUAGCCAAGUUGAUUUAAGGCGCAAGACUUUAAUUUAUCACUACGAAAUCUUGAGAUCGGGCGUUCGACUGGCCCCCGGGAGAUUUUUUCCUCGAGCAA [G19A C77G], with at most 0.026; and CUCUCGGUAGCCAAGUUGGUUUAAGGCGCAAGAAUUUAAUUUAUCACUACGAAAUCUUGAGAUCGCGCGUUCGACACGCCCCCGGGAGAUUUUUUCCUCGAGCAA [C34A G66C U76A], with at most 0.026.

CUCUCAGUAGCCAAGUUGGUUUAAGGCGCAAGACUUUAAUUUAUCACUACGAAAUCUUGAGAUCGGGCGUUCGGCUCGCCCCCGGGAGAUUUUUUCCUCGAGCAA [G6A A74G]: the nonsense suppression was at most 0.026. In the case of CUCACGGUAGCCAAGUUCGUUUAUGGCGCAAGACUUUAAUUUAUCACUACGAAAUCUUGAGAUCGGGCGUUCGACUCGCCCCCGGGAGAUUUUUUCCUCGAGCAA [U4A G18C A24U] it was at most 0.026; in that of CUCUCGGUAGCCAAGUUGGUUAAAGGCGCAAGACUUUAAUUUAUCACUACGAAAUCUUGAGAUCGGGCGUUCGAAUCGCCCCCGGGAGCUUUUUUCCUCGAGCAA [U22A C75A A89C], at most 0.026; in that of CUCUGGGUAGCCAAGUUGGUUUAAGGCGCAAGAAUUUAAUUUAUCACUACGAAAUCUUGAGAUCGGGCGUUCGACUCGCCCCCGGCAGAUUUUUUCCUCGAGCAA [C5G C34A G86C], at most 0.026.

In the case of CUCUCGGUAGUCAAGUUGGUUUAAGGCGCAAGACUUUAAUUUAUCACUACGAAAUCUUGAUAUCGGGCGUUCGACUCACCCCCGGGAGAUUUUUUCCUCGAGCAA [C11U G61U G78A], the nonsense suppression was at most 0.026. In the case of CUCUCGGUAGCCAAGUUGUUUUAAGGCGCAAGACUUUAAUUUAUCACUACGAAAUCUUGAGACGGGGCGUUCGACUCGCCCCCGGGAGAUUUUUUCCUCGAGCAA [G19U U63C C64G] it was at most 0.026; in that of GUCUCGGUAGACAAGUUGGUUUAAGGCGCAAGACUUUAAUUUAUCACUACGAAAUCUUGAGAUCGGGCGUUUGACUCGCCCCCGGGAGAUUUUUUCCUCGAGCAA [C1G C11A C72U], at most 0.026; in that of CUCUCGGUAGCCAAGUUGGUUUAAGGCGCAUGACUUUAAUUUAUCACUACGAAAUCUUGAGAUCGGGCGUUCGACUCGCCCCCCGGAGAUUUUUUCCUCGAGCAA [A31U G84C], at most 0.026.

For the variant CUCUCGUUAGCCGAGUUGUUUUAAGGCGCAAGACUUUAAUUUAUCACUACGAAAUCUAGAGAUCGGGCGUUCGACUCGCCCCCGGGAGAUUUUUUCCUCGAGCAA [G7U A13G G19U U58A], the nonsense suppression was at most 0.026.

Regarding CUCUCGGUAGCCAAGUUGGUUUUAGGCGCAACACUUUAAUUUAUCACUACGAAAUCUUGAAAUCGGGCGUUCGACUCGCCCCCGGGAGAUUUUUUCCUCGAGCAA [A23U G32C G61A], the nonsense suppression was at most 0.026. For CUCUCGGUAGCCAAGUUGGUUUAAGGCGCAAGACUUUAAUUUAUCACUACGAAAUCCUGAGAUCGGGCGUUCGACUGGCCCCCUGGAGAUUUUUUCCUCGAGCAA [U57C C77G G84U], the nonsense suppression was at most 0.026.

For CUCUCGGUAGCCAUGUUGGUAUAGGGCGCACGACUUUAAUUUAUCACUACGAAAUGUUGAGAUCGGGCGUUCGACUCGCCCCCGGGAAAUUUUUUCCUCGAGCAA [A14U U21A A24G A31C C56G G88A], the nonsense suppression is at most 0.026. In the case of CUCUCGGUAGCCAAGUUGGUUUAAGGUGCAAGACUUUAAUUUAUCACUACGAAAUCCUGAGAUCGGGCGUUCCACUCGCCCCCGGGAGAUUUUUUCCUCGAGCAA [C27U U57C G73C] it was at most 0.026; in that of CUCUCGGUAGCCAAGUUGGUUUAAGGCGCAAGACUUUAAUUUAUCACUACGAAAUCAUGAGAUCGGGCGUUCGACUCACCCCCGGGAGUUUUUUUCCUCGAGCAA [U57A G78A A89U], at most 0.026.
